Experimental data reported in ChEMBL document CHEMBL5308541, “MAIP: An Open-Source Tool to Enrich High-Throughput Screening Output and Identify Novel, Druglike Molecules with Antimalarial Activity” (ACS Med Chem Lett, 2023).
Among all 150,000 compounds or so, about 540 (0.36%) showed an effect of 50% or more. Some of the results follow.

What follows are compounds tested on Plasmodium falciparum (assay: Primary screen in NF54 nanoGlo assay, in single point, at 2uM, 72h; a lower Z score goes with more inhibition). Conditions: timepoint 72 hour.
Type: functional, Erythrocyte

SMILES	% Inhibition	Z score
Cc1nc(OCC(=O)NCCNc2cc(-n3cnc(C)c3C)ncn2)cc(-n2cccn2)n1	-5%	0.81
CCc1c[nH]c2ncnc(NCc3ccnc(NC)c3)c12	2%	-0.36
CC1(C)CNC(=O)C2(CCN(c3ccnc4c(C(F)(F)F)cccc34)CC2)NC1	-1%	0.14
CCCN(CCC)C(=O)c1ccc(-c2cnc(NC3CCCCC3)nc2)cc1	-2%	0.36
Cn1ccc(N2CC[C@H](NCc3cc4ccccc4nc3O)C2)n1	-6%	0.9
CCCCN1CCC(NC(=O)c2c[nH]c3ncccc23)CC1	-8%	1.66
Cc1ccc(-n2cccn2)c(CN(Cc2cccnc2)CC2CCN(C3CCCC3)CC2)c1	-8%	1.33
CN(C[C@@H]1C[C@H](F)CN1c1ccncn1)c1ccnc2ccncc12	-4%	0.56
O=C(c1ccnc2cc(Cl)ccc12)N1CCOC[C@H]1C1CCC1	-6%	0.97
Nc1ncc(C(=O)N2CCC(CNC(=O)c3cc4cc(F)ccc4[nH]3)CC2)s1	-5%	0.82
CCOCC1CCN(C(=O)Cc2ccn(-c3ccc(F)cc3)n2)CC1	-13%	2.82
CC1CCCN(c2cc(NC3CCCC3O)ncn2)C1 (stereo unspecified)	5%	-1.09
CC(C)(C)OC(=O)NCc1cn([C@H]2CCCN(c3ncnc4[nH]ccc34)C2)nn1	-11%	2.21
CCc1nc(NCCN2CCN(Cc3ccccc3)CC2)ncc1C	-2%	0.49
CCN1CCN(CCCNC(=O)c2cc3c(C)cc(F)cc3[nH]2)CC1	-4%	0.61
CN1CCC[C@H]1C(=O)NCC1CCN(Cc2ccccc2-c2ccccc2)CC1	4%	-0.7
Cc1cnc(NCc2ccccc2N2CCO[C@@H](C)C2)s1	4%	-0.74
O=C(NCCN1CCCOC1=O)c1ccc(-c2cnn3ccccc23)cc1	4%	-0.66
Cc1ccccc1-c1cccc(NC(=O)NCC[C@H](C)N2CCN(C)CC2)c1	-16%	2.7
C=C(C)CN=C(NC1CCCN(C2CCCCC2)C1)C(C#N)C(=O)Nc1ccnn1C (stereo unspecified)	1%	-0.19
c1ccc(CNc2ccc(-c3noc(C45CCCN(CCC4)C5)n3)cn2)cc1	81%	-17.51
CN(CC1(N2CCCCC2)CCCCC1)c1nc(N)c2cnn(C)c2n1	0%	-0.06
Clc1cc(Cl)cc(CNCCCNc2ncccn2)c1	-12%	1.79
N#Cc1ccccc1N1CCC(Nc2nccc(Oc3ccc(F)cc3)n2)CC1	-32%	5.65
O=C1CCNC(=O)c2cc(OCC3CC3)cc(c2)Oc2cccc(c2)COC2CCNCC2N1 (stereo unspecified)	-8%	1.64
Cc1nc(N2CCOCC2)ccc1NCc1ccc(C2CC2C)o1 (stereo unspecified)	-7%	1.05
Cc1cccc(N2CCC(N3CCC(c4ccnc(N)n4)CC3)CC2)c1C	4%	-0.55

SMILES	% Inhibition	Z score
Cc1cc(C(=O)N[C@@H](C)c2ccc(Cl)cn2)nc2ccccc12	-6%	1.21
CN1CCCN(CC(=O)NC2CCN(Cc3cccnc3)CC2O)CC1 (stereo unspecified)	-12%	2.39
CN1CCC[C@@H]1CCn1ccc(-c2cccc(-c3cnn(C)c3)c2)n1	-3%	0.46
Cc1nc(NC[C@@H](C(C)C)N2CCN(C)CC2)c2c(-c3ccccc3)csc2n1	8%	-1.2
CC1CN(c2ccccc2NC(=O)c2cnc(-c3ccncc3)s2)CC(C)O1 (stereo unspecified)	-10%	1.58
O[C@H]1CCCN(c2ccnc(NCCc3n[nH]c(-c4ccncc4)n3)n2)C1	-21%	3.12
Cc1ccc(F)cc1S(=O)(=O)N1CCN(c2nc(N3CCOCC3)nc(-n3ccnc3)n2)CC1	-7%	1
CN(C)c1ccc(NC2CCCCC2)nc1	-5%	1.17
Cc1ccc(OCc2cc(C(=O)N(C)Cc3nc4ccccc4[nH]3)no2)cn1	-1%	0.21
CC(C)Nc1cccc(CNS(=O)(=O)CCOC(C)C)c1	-1%	0.18
COc1cc(N2CCN(Cc3ccc(Oc4cnccn4)cc3)CC2)ncn1	-5%	0.73
OC(CNC1CCN(C2CCOC2)CC1)c1ccc(-c2ccccc2)cc1 (stereo unspecified)	15%	-2.93
CN1C[C@@H](CNc2cc(C(F)(F)F)nc(N(C)C)n2)CC1=O	-3%	0.45
CN(Cc1ccccc1O)C(=O)c1cccnc1Nc1cccc(F)c1	-2%	0.29
COc1ccc(-c2cc(CN(C)C(=O)c3ccccc3-c3ncc(-c4ccccc4)o3)on2)cc1	-15%	2.6
CS(=O)(=O)c1ccc2ncnc(NC3CCN(c4nccs4)CC3)c2c1	-14%	2.11
CC(C)Cc1nc2cc(NC(=O)[C@H](Cc3cn(C)c4ccccc34)NC(=O)OC(C)(C)C)ccc2[nH]1	-14%	2.47
Cc1cc(C[C@H](C)NC(=O)Nc2cccc(N(C)C)c2C)n[nH]1	-3%	0.6
CN1CCC(Oc2ccc(NCc3ccc(N(C)C)nc3)cn2)CC1	-17%	3.56
Cc1ccc(CN[C@H]2CCN(c3ccn(C)n3)C2)c(-c2ccnn2C)c1	4%	-0.53
COc1ccc(-c2ccnc(N[C@H]3CCC(=O)N(C)C3)n2)cc1	-3%	0.69
CC(C)(C)c1ccc2oc(CNS(=O)(=O)C3CC3)nc2c1	-3%	0.52
COc1ccc(CN(C)c2ncc(F)cn2)cc1O	-3%	0.57
CCN1CCC[C@@H]1CN(C/C=C/c1ccccc1OC)CC1CCN(CCOC)CC1	18%	-3.18
CCn1cc(-c2cc(C(F)(F)F)nc(N3CCNCC3)n2)c(C)n1	7%	-1.42
Cc1ccc(C)c(Nc2nc(N[C@H]3CCS(=O)(=O)C3)nc3nccnc23)c1	-2%	0.26
